This is an account of results in paper PMC6919601, “Identification of Plasmodium dipeptidyl aminopeptidase allosteric inhibitors by high throughput screening” (PLoS ONE, 2019).

Out of some 110,000 compounds screened, about 230 (0.21%) showed an effect of 50% or more. This is one part of the list.
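Also: 30 min substrate incubation versus DMSO and 10 µM JCP410 controls.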

Sequence of DPAP1 (Q8IIJ9 whole entry, looked up): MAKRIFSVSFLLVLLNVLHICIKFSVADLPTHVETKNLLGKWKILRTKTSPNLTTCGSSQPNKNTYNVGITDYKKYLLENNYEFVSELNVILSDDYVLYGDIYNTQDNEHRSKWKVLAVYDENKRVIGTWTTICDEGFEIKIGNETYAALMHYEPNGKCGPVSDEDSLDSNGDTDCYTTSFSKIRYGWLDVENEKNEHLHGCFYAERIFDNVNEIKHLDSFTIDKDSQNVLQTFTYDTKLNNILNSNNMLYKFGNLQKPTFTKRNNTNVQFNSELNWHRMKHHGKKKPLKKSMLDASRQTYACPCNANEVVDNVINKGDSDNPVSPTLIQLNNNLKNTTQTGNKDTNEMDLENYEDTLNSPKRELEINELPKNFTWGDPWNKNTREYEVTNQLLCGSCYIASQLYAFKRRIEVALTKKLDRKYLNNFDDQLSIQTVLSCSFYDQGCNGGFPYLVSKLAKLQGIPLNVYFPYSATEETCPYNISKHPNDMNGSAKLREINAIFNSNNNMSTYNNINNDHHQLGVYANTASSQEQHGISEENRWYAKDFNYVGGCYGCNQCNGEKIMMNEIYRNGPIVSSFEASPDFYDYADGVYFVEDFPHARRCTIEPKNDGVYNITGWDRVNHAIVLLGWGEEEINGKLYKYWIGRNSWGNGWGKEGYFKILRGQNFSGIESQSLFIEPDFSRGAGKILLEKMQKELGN

This test has as its target DPAP1 (Plasmodium falciparum, UniProt Q8IIJ9). Kind of test: primary screen, percent inhibition; read by cleavage of a fluorogenic dipeptide substrate; higher = more effect of the substance. Set-up: species or system P. falciparum D10 trophozoite lysates; single well.
Regarding `CN1C2CCC1CC(OC(=O)CCN1CCOCC1)C2` (centres unmarked), the “% Inhibition @ 10 uM” value is reported as 5.61%.
As for `CCn1c(C(=O)N2CCC(C(=O)N3CC(C)CC(C)C3)CC2)cc2sccc21` (centres unmarked), the “% Inhibition @ 10 uM” value is listed as -3.58%.
On to `O=C(NC(Cc1ccc([N+](=O)[O-])cc1)C(=O)NC(CCc1ccccc1)C(=O)CO)OCc1ccccc1` (centres unmarked), for which the “% Inhibition @ 10 uM” value is recorded as -3.14%.
Consider `CC1(C)Cc2c(C#N)c(N)n(-c3ccccc3)c(=O)c2CO1`, for which the “% Inhibition @ 10 uM” value is -8.6%.
Consider `COc1cccc(OC)c1C(=O)Nc1sc2c(c1C(N)=O)CCCC2`, for which the “% Inhibition @ 10 uM” value is -0.725%.
For the compound `CCOc1ccc(/C=C2N=C(/C=C/c3ccc(C)cc3)OC\2=O)cc1`, the “% Inhibition @ 10 uM” value came out at 3.42%.
With `O=C(Nc1cccc([N+](=O)[O-])c1)c1c(O)c2ccccc2oc1=O`, the “% Inhibition @ 10 uM” value is -2.51%.
Turning to `CCn1c2ccccc2c2cc(CNCc3ccc(OC)cc3OC)ccc21`, the “% Inhibition @ 10 uM” value is given as 3.47%.
For `Fc1ccccc1-c1nnc(CN2CCN(c3ccccn3)CC2)o1`, the “% Inhibition @ 10 uM” value turned out to be 4.47%.
As for `COc1cc(/C=C2N=C(/C=C/c3ccccc3)OC/2=O)cc(OC)c1OC`, the “% Inhibition @ 10 uM” value stood at 5.94%.
Regarding `Cc1cc(C)c2c(NC(=O)CN3CCOCC3)csc2n1`, the “% Inhibition @ 10 uM” value was -1.82%.
Turning to `O=C(Nc1ccccn1)c1cc2c(Cl)nc3ccccc3c2s1`, the “% Inhibition @ 10 uM” value is 3.6%.
The value for `Cc1ccc(-c2csc3nc(-c4cccs4)oc(=O)c23)cc1` was 3.59%; that for `COc1ccc(NC(=O)c2ccccc2O)cc1Cl` was 1.59%.
Turning to `C[C@H]1CC(=O)[C@@](C)(CCC#N)CN1C`, the “% Inhibition @ 10 uM” value is -0.261%.
For `COc1cc(C(=O)N(Cc2ccc(C)o2)C2CCS(=O)(=O)C2)cc(OC)c1OC` (centres unmarked), the “% Inhibition @ 10 uM” value is recorded as -6.5%.
Then `CSc1nc2sc3c(c2c(=O)n1C)CCC(C)C3` (centres unmarked), with -3.49%; and `CC1CCCCN1CC#CC(O)(c1ccccc1)c1ccccc1` (centres unmarked), with 1.24%.
Then `Cc1cc(C)c(C(=O)N2CCOCC2)c(Cl)n1`, with 4.01%; and `CC(C)OCCCNC(=O)CCn1c(=O)c2cccn2c2cccnc21`, with -1.57%.
Then `C#CCOc1c(Br)cc(/C=C2/C(=O)ON=C2C)cc1OCC`, with -3.96%; and `COCCCn1c(=O)c2sccc2n2c(CCCC(=O)O)nnc12`, with -1.71%; and `COc1ccc(CNC(=O)C2CCN(S(=O)(=O)N3CCC4(CC3)OCCO4)CC2)c(OC)c1`, with -2.99%.
As for `Cc1ccc(-c2noc(CN(C(=O)c3ccc(C)cc3C)C(C)C)n2)cc1`, the “% Inhibition @ 10 uM” value came to 2.23%.
For the compound `COCCNC(=O)Cn1ncc2c(=O)oc3ccc(C)cc3c21`, the “% Inhibition @ 10 uM” value is 4.74%.
Turning to `CC(=O)c1c(C)n(-c2ccc(N(C)C)cc2)c2ccc(O)cc12`, the “% Inhibition @ 10 uM” value turned out to be 3.61%.
With `COc1ccccc1CNC(=O)CCc1c(C)c2cc3c(C)c(C)oc3c(C)c2oc1=O`, the “% Inhibition @ 10 uM” value came out at 2.54%.
For `COc1ccccc1OCC(=O)Nc1ccc(S(=O)(=O)N2CCCCC2)cc1`, the “% Inhibition @ 10 uM” value is -0.425%.
On to `Cc1cc(C)c2nc3s/c(=C\c4c(C)[nH]c5ccccc45)c(=O)n3c2c1`, for which the “% Inhibition @ 10 uM” value was determined as 4.88%.
With `CC(C)C[C@H](NC(=O)OCc1cccc(Oc2ccccc2)c1)C(=O)NCC#N`, the “% Inhibition @ 10 uM” value stood at 6.03%.
As to `CCOC(=O)N1CCN(C(=O)c2ccc(C#Cc3ccccc3)cc2)CC1`, the “% Inhibition @ 10 uM” value was found to be 2.05%.
`CC(Cc1cccc(C(F)(F)F)c1)NCC1CCCO1` (centres unmarked): the “% Inhibition @ 10 uM” value came to 1.9%.
Turning to `O=C(/C=C/c1ccc(Cl)cc1)Nc1cc2cc(Br)ccc2oc1=O`, the “% Inhibition @ 10 uM” value stood at 0.997%.
Regarding `C=CCN(CC=C)CC(O)Cn1c(C)c(C)c2ccccc21` (centres unmarked), the “% Inhibition @ 10 uM” value was -3.39%.
Regarding `CCN(CC)C(=O)CSc1nc(O)cc(O)n1`, the “% Inhibition @ 10 uM” value was found to be 2.65%.
For `COCCN1C(=O)c2cccnc2C1=O`, the “% Inhibition @ 10 uM” value is on record as -4.69%.
`Cc1ccc(S(=O)(=O)NC2CCCCC2)c2nsnc12`: the “% Inhibition @ 10 uM” value stood at 3.32%.
The value for `O=C(CCn1cnc2onc(-c3ccc(F)cc3)c2c1=O)Nc1ccccn1` was -6.14%; that for `CC1CCc2c(sc(NC(=O)c3ccccc3)c2C#N)C1` (centres unmarked) was -2.89%.
The value for `COc1cc(OC)cc(C(=O)Nc2cccc3cccnc23)c1` was 2.82%.
As for `CCCC1CCc2c(sc(NS(=O)(=O)c3ccc(NC(C)=O)cc3)c2C(N)=O)C1` (centres unmarked), the “% Inhibition @ 10 uM” value is on record as 1.96%.
The value for `CCCCCCN1C(=O)C(O)=C(C(C)=O)C1c1ccc(Br)cc1` (centres unmarked) was 1.35%; that for `Nc1c(C(=O)c2ccccc2)sc2snc(SCC(=O)c3ccccc3)c12` was 7.93%; that for `O=C(CSc1ncnc2ccccc12)NCC(=O)c1ccccc1` was -0.834%.
Take `C=CCn1cc(C=C2C(=O)OC3(CCCC3)OC2=O)c2ccccc21`: the “% Inhibition @ 10 uM” value is reported as 1.39%.
The value for `O=C(Cn1ncc2c3ccccc3n(Cc3ccc(F)cc3)c2c1=O)NCc1ccc2c(c1)OCO2` was -1.58%.
In the case of `O=C(C1CCCO1)N1CCN(S(=O)(=O)c2cccc3nsnc23)CC1` (centres unmarked), the “% Inhibition @ 10 uM” value came to 0.163%.
As for `CC1CC(=O)C2=C(C1)OC(N)=C(C#N)C2c1cccc2ccccc12` (centres unmarked), the “% Inhibition @ 10 uM” value is listed as -4.94%.
Take `Cc1ccc(S(=O)(=O)Nc2ccnc(C(=O)NCc3ccc4c(c3)OCO4)c2)cc1`: the “% Inhibition @ 10 uM” value was -6.62%.
As to `OC(CNC1CCCCC1)Cn1c2ccccc2c2ccccc21` (centres unmarked), the “% Inhibition @ 10 uM” value is listed as 0.219%.
The value for `O=C(Nc1cccc2c1CCCC2)c1cccc([N+](=O)[O-])c1` was -4.58%; that for `CCOC(=O)c1c(NC(=O)COc2c(C)ccc(C)c2C)sc(C)c1C` was -5.08%; that for `O=C(NCc1ccccc1)NS(=O)(=O)c1ccccc1Cl` was 2.38%.
Take `Cc1ccc2oc(=O)c3cc(C(=O)NCc4ccc(F)cc4)sc3c2c1`: the “% Inhibition @ 10 uM” value was -5.62%.
In the case of `COc1ccc(-c2cnc(NCc3ccc(C(C)C)cc3)n2C)cc1`, the “% Inhibition @ 10 uM” value is listed as 5.5%.
As for `Cc1ccc(CNC(=O)Cn2c(SCc3ccccc3F)nc3cccnc32)cc1`, the “% Inhibition @ 10 uM” value is recorded as -1.18%.
Then `CCN1C=CC=C/C1=C/c1ccc2cc(C)ccc2[n+]1CC`, with -1.69%; and `O=C(c1[nH]nc2ccccc12)N1CCCCC1`, with -0.403%; and `COc1cc(C2C(C#N)=C(N)Oc3[nH]nc(-c4ccc5ccccc5c4)c32)cc(OC)c1OC` (centres unmarked), with 3.42%.
For the compound `COc1ccc(C(=O)N2CCN(Cc3cccc(C)c3)CC2)cc1`, the “% Inhibition @ 10 uM” value is recorded as -1.36%.
As for `Cc1ccnc(NS(=O)(=O)c2ccc(NC(=O)C(F)(F)F)cc2)n1`, the “% Inhibition @ 10 uM” value is -1.08%.
As to `CCOC(=O)N1CCN(S(=O)(=O)N2CCCC(C(=O)NC(C)C)C2)CC1` (centres unmarked), the “% Inhibition @ 10 uM” value amounted to 0.387%.
The value for `Cc1ccc(CCNC(=O)c2ccc3c(c2)c(C)c(C)n3C)cc1` was 4.79%; that for `CS(=O)(=O)c1nc(-c2ccc(Br)cc2)cc(-c2ccccc2)c1C#N` was -3.75%.
The value for `CCCC(=O)C1=C(N(C)c2ccccc2)CC(C)(C)CC1=O` was 2.45%; that for `CCO/C(O)=C1\C(C)=Nc2nnnn2C1c1cccnc1` (centres unmarked) was 1.18%.
As to `COc1ccc(S(=O)(=O)Nc2ccc(Nc3ccccc3)cc2)cc1`, the “% Inhibition @ 10 uM” value is -2.09%.
Regarding `COc1ccc(-c2c(Cl)nc(NCc3ccc4c(c3)OCO4)c(=O)n2-c2ccccc2)cc1OC`, the “% Inhibition @ 10 uM” value is -3.77%.
For `Cc1ccc2oc(-c3ccccc3)c(CN3CCOCC3)c(=O)c2c1`, the “% Inhibition @ 10 uM” value was -5.4%.
Then `O=S(=O)(c1ccc(Br)c2ccccc12)N1CCN(Cc2ccccc2)CC1`, with -6.94%.
For `O=[N+]([O-])c1ccc(/N=C/C=C(\O)c2ccc(Br)cc2)cc1`, the “% Inhibition @ 10 uM” value is -2%.
For `O=C(C1=C(O)C(=O)N(CC2CCCO2)C1c1ccc(Cl)cc1)c1ccccc1` (centres unmarked), the “% Inhibition @ 10 uM” value is 2.64%.
Regarding `COc1cc(C2CC(=O)NC3=C2C(=O)CCC3)c(OC)cc1Br` (centres unmarked), the “% Inhibition @ 10 uM” value is 0.8%.
Then `O=C(O)c1cc(-c2ccccc2F)nc2ccc3ccccc3c12`, with 19%; and `Cc1cccc(CNc2nc3nc(C)cc(O)n3n2)c1`, with -0.671%.
Then `Clc1ccc(-c2cnc3nonc3n2)cc1`, with -1.11%; and `Fc1ccc(CSc2nc3ccncc3[nH]2)c(Cl)c1`, with 1.03%.
With `COc1cc(C)c(CN2CCCCC2CO)cc1C` (centres unmarked), the “% Inhibition @ 10 uM” value was 0.273%.
For `O=c1[nH]c(O)c(C2NCCc3ccccc32)c(=O)n1-c1cccc(F)c1` (centres unmarked), the “% Inhibition @ 10 uM” value is recorded as 9.97%.
For the compound `Cc1c2cnn(CC(=O)NCc3ccco3)c(=O)c2c(C)n1Cc1ccc(Cl)cc1`, the “% Inhibition @ 10 uM” value is on record as -0.447%.
`CCN(CCN(C)C)Cc1ccc(NC(C)=O)cc1`: the “% Inhibition @ 10 uM” value is recorded as -4.04%.
As for `COc1cc(CNCCO)cc(Cl)c1OCc1ccccc1`, the “% Inhibition @ 10 uM” value came to 1.94%.
Then `COC(=O)c1cc2occc2n1Cc1nc(-c2ccccc2Cl)oc1C`, with -7.13%; and `Oc1nc(O)c(-c2ccccc2)c(O)n1`, with 2.36%; and `CCOc1cc2c(cc1OCC)C(c1ccc(OC)c(C)c1)NCC2` (centres unmarked), with -8.41%.
The value for `COc1ccccc1CN(CCCN(C)C)CCCN(C)C` was -0.0494%; that for `O=C(c1ccc(-c2ccccc2)cc1)N(CC1CC1)CC1CCCO1` (centres unmarked) was 0.13%.
For `O=C(NC1CCCc2ccccc21)c1cc(C2CC2)[nH]n1` (centres unmarked), the “% Inhibition @ 10 uM” value is recorded as -0.537%.
Turning to `C=CCN1C(=O)/C(=C/Nc2cccnc2Cl)C(=O)N(CCCC)C1=O`, the “% Inhibition @ 10 uM” value was found to be 4.01%.
Take `COc1cc2c(cc1OC)C(COc1cc(C)cc(C)c1)N(C(=O)c1ccco1)CC2` (centres unmarked): the “% Inhibition @ 10 uM” value was determined as 2.24%.
`CSc1nc(N)nc(SCC(=O)Nc2nc(C)cs2)c1C#N`: the “% Inhibition @ 10 uM” value came out at 4.97%.
On to `COc1ccc(C(=O)N/C(=C\c2ccc3c(c2)OCO3)C(=O)N2CCCCC2)cc1`, for which the “% Inhibition @ 10 uM” value stood at 4.28%.
With `Cc1ccc(-n2nnnc2SCC(=O)Nc2nn(-c3ccccc3)nc2C(N)=O)c(C)c1`, the “% Inhibition @ 10 uM” value was -2.63%.
With `O=C(CSc1cn(CC(=O)N2CCOCC2)c2ccccc12)NC1CCCC1`, the “% Inhibition @ 10 uM” value came to 2.46%.
In the case of `Cc1nc2c([nH]1)sc1ccccc12`, the “% Inhibition @ 10 uM” value came to 1.12%.
`O=C(O)c1cc(S(=O)(=O)Nc2cccc(Cl)c2)ccc1Cl`: the “% Inhibition @ 10 uM” value is recorded as -3.23%.
`O=C(CSc1nc2cccnc2[nH]1)NCc1nc2ccccc2[nH]1`: the “% Inhibition @ 10 uM” value came to 1.63%.
The value for `COCCNC(=O)/C(C#N)=C/c1c(Oc2cc(C)ccc2C(C)C)nc2ccccn2c1=O` was -7.04%.
Regarding `Cc1c(/C=C/C(=O)O)c(=O)n(Cc2ccccc2)c(=O)n1Cc1ccccc1`, the “% Inhibition @ 10 uM” value is recorded as 8.27%.
With `O=C(/C=C/c1ccccc1)c1ccc2c(c1)OCCCCO2`, the “% Inhibition @ 10 uM” value is reported as -0.711%.
For `CCOC(=O)c1nc(O)c2ccccc2c1O`, the “% Inhibition @ 10 uM” value was 2.26%.
